From publication PMC6345720
Results are given in words; binding and its absence hold for the method and conditions named. Binding seen in cells or lysates may run through a third protein. Tags and fused reporters may be left off the sequences shown.

Biological target: T1, PLDβ1-YFP-HA (Arabidopsis thaliana) (UniProt P93733)
T1 sequence: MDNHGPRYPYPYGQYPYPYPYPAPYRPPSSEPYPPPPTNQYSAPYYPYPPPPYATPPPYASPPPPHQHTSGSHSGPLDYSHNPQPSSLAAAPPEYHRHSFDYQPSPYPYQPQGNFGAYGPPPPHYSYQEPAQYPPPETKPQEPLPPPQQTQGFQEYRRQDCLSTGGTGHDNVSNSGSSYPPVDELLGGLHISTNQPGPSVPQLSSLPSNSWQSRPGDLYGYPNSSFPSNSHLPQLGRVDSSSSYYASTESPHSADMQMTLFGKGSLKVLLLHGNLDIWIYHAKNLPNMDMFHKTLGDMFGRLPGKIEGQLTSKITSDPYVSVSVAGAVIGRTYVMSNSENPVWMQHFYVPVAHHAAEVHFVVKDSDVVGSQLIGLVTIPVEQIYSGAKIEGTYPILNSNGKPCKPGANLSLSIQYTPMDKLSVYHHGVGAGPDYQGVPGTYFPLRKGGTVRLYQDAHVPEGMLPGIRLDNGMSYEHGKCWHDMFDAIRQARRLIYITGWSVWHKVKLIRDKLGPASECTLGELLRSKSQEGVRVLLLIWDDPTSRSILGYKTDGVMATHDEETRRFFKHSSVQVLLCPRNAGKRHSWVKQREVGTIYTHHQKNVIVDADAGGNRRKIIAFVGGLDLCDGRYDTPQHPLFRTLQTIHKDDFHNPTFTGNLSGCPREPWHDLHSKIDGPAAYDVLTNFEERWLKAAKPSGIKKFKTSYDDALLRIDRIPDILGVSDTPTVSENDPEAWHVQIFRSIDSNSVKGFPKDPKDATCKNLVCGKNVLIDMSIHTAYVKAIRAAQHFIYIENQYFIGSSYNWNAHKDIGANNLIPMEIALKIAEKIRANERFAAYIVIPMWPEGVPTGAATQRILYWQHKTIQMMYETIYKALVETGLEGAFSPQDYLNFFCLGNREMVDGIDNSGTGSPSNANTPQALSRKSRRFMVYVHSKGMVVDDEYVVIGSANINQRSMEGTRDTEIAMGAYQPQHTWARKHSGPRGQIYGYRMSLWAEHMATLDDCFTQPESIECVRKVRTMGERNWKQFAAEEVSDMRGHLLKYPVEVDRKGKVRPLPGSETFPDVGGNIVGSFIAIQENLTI
Test: co-IP; PLD-YFP-HA and RPM1-Myc co-expressed in N. benthamiana leaves; microsomal fractions solubilised in 40 mM Tris-HCl pH 7.5, 150 mM NaCl, 1 mM DTT, 5 mM EDTA, 1% Triton X-100; PLD-YFP-HA precipitated with anti-GFP agarose beads at 4°C for 3 h; RPM1-Myc detected by blot

binding: no binding
B1: RPM1-Myc (35S::RPM1-Myc) (receptor, UniProt Q39214 1-926)
chain: MASATVDFGIGRILSVLENETLLLSGVHGEIDKMKKELLIMKSFLEDTHKHGGNGSTTTTTQLFQTFVANTRDLAYQIEDILDEFGYHIHGYRSCAKIWRAFHFPRYMWARHSIAQKLGMVNVMIQSISDSMKRYYHSENYQAALLPPIDDGDAKWVNNISESSLFFSENSLVGIDAPKGKLIGRLLSPEPQRIVVAVVGMGGSGKTTLSANIFKSQSVRRHFESYAWVTISKSYVIEDVFRTMIKEFYKEADTQIPAELYSLGYRELVEKLVEYLQSKRYIVVLDDVWTTGLWREISIALPDGIYGSRVMMTTRDMNVASFPYGIGSTKHEIELLKEDEAWVLFSNKAFPASLEQCRTQNLEPIARKLVERCQGLPLAIASLGSMMSTKKFESEWKKVYSTLNWELNNNHELKIVRSIMFLSFNDLPYPLKRCFLYCSLFPVNYRMKRKRLIRMWMAQRFVEPIRGVKAEEVADSYLNELVYRNMLQVILWNPFGRPKAFKMHDVIWEIALSVSKLERFCDVYNDDSDGDDAAETMENYGSRHLCIQKEMTPDSIRATNLHSLLVCSSAKHKMELLPSLNLLRALDLEDSSISKLPDCLVTMFNLKYLNLSKTQVKELPKNFHKLVNLETLNTKHSKIEELPLGMWKLKKLRYLITFRRNEGHDSNWNYVLGTRVVPKIWQLKDLQVMDCFNAEDELIKNLGCMTQLTRISLVMVRREHGRDLCDSLNKIKRIRFLSLTSIDEEEPLEIDDLIATASIEKLFLAGKLERVPSWFNTLQNLTYLGLRGSQLQENAILSIQTLPRLVWLSFYNAYMGPRLRFAQGFQNLKILEIVQMKHLTEVVIEDGAMFELQKLYVRACRGLEYVPRGIENLINLQELHLIHVSNQLVERIRGEGSVDRSRVKHIPAIKHYFRTDNGSFYVSLSS
